The full ranking holds about 81,000 sequences; the median of “one-hybrid fitness for binding NBS DNA” is about -0.1, and the highest 2% start at about 0.36. Some of the results follow.

B1: Caulobacter ParB omega fusion; a variant is named by its letters at X, in order, B8GW30 (parent)
chain: MESVVVGEPGMSEGRRGLGRGLSALLGEVDAAPAQAPGEQLGGSREAPIEILQRNPDQPRRTFREEDLEDLSNSIREKGVLQPILVRPSPDTAGEYQIVAGERAWRAAQRAGLKTVPIMVRELDDLAVLEIGIIENVQRADLNVLEEALSYKVLMEKFERTQENIAQTIGKSXSHVANXMRLLXLPDEVQSYLVSGELTAXHARAIAAAADPVALAKQIIEGGLSVRETEALARKAPNLSAGKSKGGRPPRVKDTDTQALESDLSSVLGLDVSIDHRGSTGTLTITYATLEQLDDLCNRLTRGI

Variants of B1 are the subject of the assay. As to the kind of experiment: one-hybrid fitness for binding NBS DNA (the Noc-binding site; scaled: cognate 1, non-cognate 0); higher = stronger binding. Conditions: with NBS DNA site. The gist of the method: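 On M9-minus-histidine containing 0.1 mM IPTG and 5 mM 3-AT, E. coli USO cells with a HIS3 reporter, site 19 bp from the promoter, grew 48 hours at 37°C to select Caulobacter ParB libraries randomised at four specificity codons. Plasmids from before and after were Illumina-sequenced, with three replicate libraries pooled and variants under 10 reads left out. Fitness is the log change in variant-to-wild-type read ratio, rescaled against cognate and non-cognate.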
HTPI: the “one-hybrid fitness for binding NBS DNA” value was at most 0.2.
For HAQD the value was at most 0.2; for YCAT, at most 0.2; for AESL, at most 0.2.
In the case of INRG, the “one-hybrid fitness for binding NBS DNA” value was at most 0.2.
For PGRV the value was at most 0.2.
Then QHCT, with 0.294; and WLVP, with at most 0.2; and VRNW, with at most 0.2.
For QSVA the value was at most 0.2; for NQPK, at most 0.2.
Regarding LTII, the “one-hybrid fitness for binding NBS DNA” value was at most 0.2.
For HNPD the value was at most 0.2; for GGSI, at most 0.2.
Consider TKSD, for which the “one-hybrid fitness for binding NBS DNA” value is at most 0.2.
For LVPH the value was at most 0.2; for HALD, at most 0.2.
Then CLNG, with at most 0.2; and TDPD, with at most 0.2; and NYSL, with at most 0.2.
Then STNL, with at most 0.2; and SCSG, with at most 0.2; and QGTK, with at most 0.2.
Turning to NLTV, the “one-hybrid fitness for binding NBS DNA” value was at most 0.2.
For FLII the value was at most 0.2; for GILL, at most 0.2.
For YTRR the value was 0.255.
Then HTLR, with at most 0.2; and QYVA, with at most 0.2; and SHTS, with at most 0.2.
With RRLC, the “one-hybrid fitness for binding NBS DNA” value was found to be 0.301.
As to RPQP, the “one-hybrid fitness for binding NBS DNA” value was at most 0.2.
For AGAA, the “one-hybrid fitness for binding NBS DNA” value is at most 0.2.
Then PYHN, with at most 0.2.
Then ATVA, with at most 0.2; and SGKT, with at most 0.2; and PRIR, with at most 0.2.
As to RDSC, the “one-hybrid fitness for binding NBS DNA” value was at most 0.2.
For THQV the value was at most 0.2; for HKPW, at most 0.2; for TIRS, at most 0.2.
Then MTAL, with at most 0.2; and SACI, with at most 0.2.
Then HPGY, with at most 0.2.
Consider ANSN, for which the “one-hybrid fitness for binding NBS DNA” value is at most 0.2.
For SHIE the value was at most 0.2; for TKMS, at most 0.2; for CGFS, at most 0.2.
For the variant LRSA, the “one-hybrid fitness for binding NBS DNA” value was at most 0.2.
For HTTA the value was at most 0.2; for NVPS, at most 0.2; for KMMT, at most 0.2.
Consider HQKS, for which the “one-hybrid fitness for binding NBS DNA” value was at most 0.2.
For IHHR the value was at most 0.2.
For ICTG the value was at most 0.2; for TPIT, at most 0.2; for VRRR, 0.624.
Consider WWMS, for which the “one-hybrid fitness for binding NBS DNA” value was at most 0.2.
As for HHFR, the “one-hybrid fitness for binding NBS DNA” value was at most 0.2.
Then QAAM, with at most 0.2; and GLLT, with at most 0.2.
For QEYC the value was at most 0.2; for LAMN, at most 0.2.
Regarding QLAT, the “one-hybrid fitness for binding NBS DNA” value was found to be 0.396.
Then CSEP, with at most 0.2.
Then QVPY, with at most 0.2.
Then HSSG, with at most 0.2; and NERG, with at most 0.2; and QRQR, with 0.987.
For FLPT, the “one-hybrid fitness for binding NBS DNA” value was at most 0.2.
For SPLM the value was at most 0.2; for EMRY, at most 0.2; for WQWG, at most 0.2.
Then TLVY, with at most 0.2; and TRTH, with at most 0.2.
Then TEQR, with at most 0.2.
With MSFM, the “one-hybrid fitness for binding NBS DNA” value is at most 0.2.
Then HRIF, with at most 0.2.
Then VNGR, with at most 0.2; and RGEN, with at most 0.2.
For NCHA the value was at most 0.2.
KVPC: the “one-hybrid fitness for binding NBS DNA” value was at most 0.2.
For the variant IGNR, the “one-hybrid fitness for binding NBS DNA” value is at most 0.2.
For QTRE the value was 0.405; for GLKH, at most 0.2; for LAAY, at most 0.2.
On to TPVG, for which the “one-hybrid fitness for binding NBS DNA” value is at most 0.2.
For NTND the value was at most 0.2; for FRWG, at most 0.2.
Then SLPT, with at most 0.2; and ISAS, with at most 0.2.
For AIDR the value was at most 0.2.
Take LAFC: the “one-hybrid fitness for binding NBS DNA” value was at most 0.2.
Then ALHG, with at most 0.2; and YTDT, with at most 0.2; and PDYC, with at most 0.2.
For AVSR the value was at most 0.2; for WQAV, at most 0.2.
Then NCPM, with at most 0.2; and EHTN, with at most 0.2.
As to RKMV, the “one-hybrid fitness for binding NBS DNA” value was at most 0.2.
For YMKR, the “one-hybrid fitness for binding NBS DNA” value was at most 0.2.
Then ISIM, with at most 0.2; and EAKS, with at most 0.2; and KEQG, with at most 0.2.
For KVGS the value was at most 0.2; for NMKS, at most 0.2; for RFEY, at most 0.2.
For CCLD the value was at most 0.2; for LAMT, at most 0.2; for KHAD, at most 0.2.
Regarding RNYD, the “one-hybrid fitness for binding NBS DNA” value was at most 0.2.
For STDV the value was at most 0.2; for QTWE, at most 0.2; for QGRM, at most 0.2.
As for RIMN, the “one-hybrid fitness for binding NBS DNA” value is at most 0.2.
In the case of QHTL, the “one-hybrid fitness for binding NBS DNA” value is at most 0.2.
Consider SARR, for which the “one-hybrid fitness for binding NBS DNA” value is at most 0.2.
In the case of GRWR, the “one-hybrid fitness for binding NBS DNA” value is at most 0.2.
Then ADMG, with at most 0.2; and RHTH, with at most 0.2; and TWVG, with at most 0.2.
With SPCG, the “one-hybrid fitness for binding NBS DNA” value was at most 0.2.
Regarding IFPS, the “one-hybrid fitness for binding NBS DNA” value was at most 0.2.
As to GGWG, the “one-hybrid fitness for binding NBS DNA” value is at most 0.2.
For EHNI the value was at most 0.2; for RHVM, at most 0.2.
For LSLP the value was at most 0.2; for DDVN, at most 0.2; for YTNV, at most 0.2.
Then DTSL, with at most 0.2; and GARN, with at most 0.2; and TLWR, with at most 0.2.
QGSY: the “one-hybrid fitness for binding NBS DNA” value is at most 0.2.
For PHYE the value was at most 0.2.
Then NTVC, with at most 0.2; and HHHT, with at most 0.2; and PHQA, with at most 0.2.
In the case of YYHS, the “one-hybrid fitness for binding NBS DNA” value was at most 0.2.
AFRC: the “one-hybrid fitness for binding NBS DNA” value is at most 0.2.
For ITAG, the “one-hybrid fitness for binding NBS DNA” value was at most 0.2.
Consider MQRN, for which the “one-hybrid fitness for binding NBS DNA” value was at most 0.2.
Then PNHN, with at most 0.2; and QQAW, with at most 0.2; and CFAY, with at most 0.2.
Then ESQS, with at most 0.2; and DACM, with at most 0.2; and HDKY, with at most 0.2.
For HHTN the value was at most 0.2; for QISN, at most 0.2.
For the variant STTG, the “one-hybrid fitness for binding NBS DNA” value is at most 0.2.
Then QCQE, with at most 0.2.
For AYFM the value was at most 0.2.
